Results taken from the supplement of paper PMC8728848.
The other results are listed elsewhere or left out.

Assays:
Assay in all cases: glycan array binding signal (z-score within array); higher = stronger binding
Conditions in all cases: glycan notation: IUPAC condensed, linker removed; mutation: R343K
[1] = target: Gal(b1-4)GlcNAc(b1-3)Gal(b1-4)GlcNAc(b1-3)Gal(b1-4)GlcNAc
Procedure, shortened: (§1)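 Arrays were curated from the Consortium for Functional Glycomics database, 3228 in total, and kept only where the protein sequence was available. Binding is expressed as a within-array Z-score. This score was averaged across arrays of the same protein sequence at different concentrations or buffers and across linkers, and negative values can be read as non-binding.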

[2] = target: Gal(b1-4)GlcNAc(b1-3)Gal(b1-4)[Fuc(a1-3)]GlcNAc(b1-3)Gal(b1-4)[Fuc(a1-3)]GlcNAc
Procedure, shortened: as §1

[3] = target: Gal(b1-4)GlcNAc(b1-3)GalNAc
Procedure, shortened: as §1

[4] = target: Gal(b1-4)GlcNAc(b1-3)[Gal(b1-4)GlcNAc(b1-6)]Gal(b1-4)GlcNAc
Procedure, shortened: as §1

[5] = target: Gal(b1-4)GlcNAc(b1-3)[GlcNAc(b1-6)]Gal(b1-4)GlcNAc
Procedure, shortened: as §1

[6] = target: Gal(b1-4)GlcNAc(b1-6)Gal(b1-4)GlcNAc
Procedure, shortened: as §1

[7] = target: Gal(b1-4)GlcNAc(b1-6)Gal(b1-4)GlcNAc(b1-6)GalNAc
Procedure, shortened: as §1

[8] = target: Gal(b1-4)GlcNAc(b1-6)GalNAc
Procedure, shortened: as §1

[9] = target: Gal(b1-4)GlcNAc(b1-6)[Gal(b1-3)]GalNAc
Procedure, shortened: as §1

Gal3S(b1-3)GalNAc = target: Gal3S(b1-3)GalNAc
Procedure, shortened: as §1

Gal3S(b1-3)GlcNAc = target: Gal3S(b1-3)GlcNAc
Procedure, shortened: as §1

[10] = target: Gal3S(b1-3)[Fuc(a1-4)]GlcNAc
Procedure, shortened: as §1

Gal3S(b1-4)Glc = target: Gal3S(b1-4)Glc
Procedure, shortened: as §1

Gal3S(b1-4)Glc6S = target: Gal3S(b1-4)Glc6S
Procedure, shortened: as §1

Gal3S(b1-4)GlcNAc = target: Gal3S(b1-4)GlcNAc
Procedure, shortened: as §1

Gal3S(b1-4)GlcNAc6S = target: Gal3S(b1-4)GlcNAc6S
Procedure, shortened: as §1

[11] = target: Gal3S(b1-4)[Fuc(a1-3)]Glc
Procedure, shortened: as §1

Gal3S4S(b1-4)GlcNAc = target: Gal3S4S(b1-4)GlcNAc
Procedure, shortened: as §1

Gal3S6S(b1-4)GlcNAc = target: Gal3S6S(b1-4)GlcNAc
Procedure, shortened: as §1

Gal3S6S(b1-4)GlcNAc6S = target: Gal3S6S(b1-4)GlcNAc6S
Procedure, shortened: as §1

Gal4S(b1-4)GlcNAc = target: Gal4S(b1-4)GlcNAc
Procedure, shortened: as §1

Gal4S6S(b1-4)GlcNAc = target: Gal4S6S(b1-4)GlcNAc
Procedure, shortened: as §1

Gal6S(b1-4)Glc = target: Gal6S(b1-4)Glc
Procedure, shortened: as §1

Gal6S(b1-4)Glc6S = target: Gal6S(b1-4)Glc6S
Procedure, shortened: as §1

Gal6S(b1-4)GlcNAc = target: Gal6S(b1-4)GlcNAc
Procedure, shortened: as §1

Gal6S(b1-4)GlcNAc6S = target: Gal6S(b1-4)GlcNAc6S
Procedure, shortened: as §1

GalNAc(a1-3)Gal = target: GalNAc(a1-3)Gal
Procedure, shortened: as §1

GalNAc(a1-3)GalNAc = target: GalNAc(a1-3)GalNAc
Procedure, shortened: as §1

GalNAc(b1-3)Gal = target: GalNAc(b1-3)Gal
Procedure, shortened: as §1

[12] = target: GalNAc(b1-3)Gal(a1-4)Gal(b1-4)GlcNAc
Procedure, shortened: as §1

GalNAc(b1-3)GalNAc = target: GalNAc(b1-3)GalNAc
Procedure, shortened: as §1

GalNAc(b1-4)GlcNAc = target: GalNAc(b1-4)GlcNAc
Procedure, shortened: as §1

Glc(a1-4)Glc = target: Glc(a1-4)Glc
Procedure, shortened: as §1

Glc(a1-6)Glc(a1-6)Glc = target: Glc(a1-6)Glc(a1-6)Glc
Procedure, shortened: as §1

Glc(b1-4)Glc = target: Glc(b1-4)Glc
Procedure, shortened: as §1

Glc(b1-6)Glc = target: Glc(b1-6)Glc
Procedure, shortened: as §1

GlcA(b1-3)Gal = target: GlcA(b1-3)Gal
Procedure, shortened: as §1

GlcA(b1-3)GlcNAc = target: GlcA(b1-3)GlcNAc
Procedure, shortened: as §1

GlcA(b1-6)Gal = target: GlcA(b1-6)Gal
Procedure, shortened: as §1

[13] = target: GlcNAc(a1-3)Gal(b1-4)GlcNAc
Procedure, shortened: as §1

[14] = target: GlcNAc(a1-6)Gal(b1-4)GlcNAc
Procedure, shortened: as §1

[15] = target: GlcNAc(b1-2)Gal(b1-3)GalNAc
Procedure, shortened: as §1

[16] = target: GlcNAc(b1-2)Man(a1-3)[GlcNAc(b1-2)Man(a1-6)]Man(b1-4)GlcNAc(b1-4)GlcNAc
Procedure, shortened: as §1

GlcNAc(b1-3)Gal = target: GlcNAc(b1-3)Gal
Procedure, shortened: as §1

[17] = target: GlcNAc(b1-3)Gal(b1-3)GalNAc
Procedure, shortened: as §1

B1: Surfactant Protein D (Human); Neck + Carbohydrate Recognition Domain (NCRD) (Homo sapiens) (protein)
chain: MLLFLLSALVLLTQPLGYLEAEMKTYSHRTMPSACTLVMCSSVESGLPGRDRDGREGPRGEKGDPGLPGAAGQAGMPGQAGPVGPKGDNGSVGEPGPKGDTGPSGPPGPPGVPGPAGREGALGKQGNIGPQGKPGPKGEAGPKGEVGAPGMQGSAGARGLAGPKGERGVPGERGVPGNTGAAGSAGAMGPQGSPGARGPPGLKGDKGIPGDKGAKGESGLPDVASLRQQVEALQGQVQHLQAAFSQYKKVELFPNGQSVGEKIFKTAQFVKPFTEAQLLCTQAGGQLASPRSAAENAALQQLVVAKNEAAFLSMTDSKTEGKFTYPTGESLVYSNWAPGEPNDDGGSEDCVEIFTNGKWNDKACGEKRLVVCEF
- glycan array binding signal (z-score) [1]: -0.155
- glycan array binding signal (z-score) [2]: -0.154
- glycan array binding signal (z-score) [3]: -0.14
- glycan array binding signal (z-score) [4]: -0.158
- glycan array binding signal (z-score) [5]: -0.155
- glycan array binding signal (z-score) [6]: -0.154
- glycan array binding signal (z-score) [7]: -0.146
- glycan array binding signal (z-score) [8]: -0.151
- glycan array binding signal (z-score) [9]: -0.149
- glycan array binding signal (z-score) (Gal3S(b1-3)GalNAc): -0.155
- glycan array binding signal (z-score) (Gal3S(b1-3)GlcNAc): -0.155
- glycan array binding signal (z-score) [10]: -0.153
- glycan array binding signal (z-score) (Gal3S(b1-4)Glc): -0.153
- glycan array binding signal (z-score) (Gal3S(b1-4)Glc6S): -0.145
- glycan array binding signal (z-score) (Gal3S(b1-4)GlcNAc): -0.153
- glycan array binding signal (z-score) (Gal3S(b1-4)GlcNAc6S): -0.153
- glycan array binding signal (z-score) [11]: -0.143
- glycan array binding signal (z-score) (Gal3S4S(b1-4)GlcNAc): -0.145
- glycan array binding signal (z-score) (Gal3S6S(b1-4)GlcNAc): -0.153
- glycan array binding signal (z-score) (Gal3S6S(b1-4)GlcNAc6S): -0.155
- glycan array binding signal (z-score) (Gal4S(b1-4)GlcNAc): -0.16
- glycan array binding signal (z-score) (Gal4S6S(b1-4)GlcNAc): -0.155
- glycan array binding signal (z-score) (Gal6S(b1-4)Glc): -0.151
- glycan array binding signal (z-score) (Gal6S(b1-4)Glc6S): -0.151
- glycan array binding signal (z-score) (Gal6S(b1-4)GlcNAc): -0.151
- glycan array binding signal (z-score) (Gal6S(b1-4)GlcNAc6S): -0.159
- glycan array binding signal (z-score) (GalNAc(a1-3)Gal): -0.156
- glycan array binding signal (z-score) (GalNAc(a1-3)GalNAc): -0.159
- glycan array binding signal (z-score) (GalNAc(b1-3)Gal): -0.156
- glycan array binding signal (z-score) [12]: -0.146
- glycan array binding signal (z-score) (GalNAc(b1-3)GalNAc): -0.157
- glycan array binding signal (z-score) (GalNAc(b1-4)GlcNAc): -0.156
- glycan array binding signal (z-score) (Glc(a1-4)Glc): -0.149
- glycan array binding signal (z-score) (Glc(a1-6)Glc(a1-6)Glc): -0.146
- glycan array binding signal (z-score) (Glc(b1-4)Glc): -0.153
- glycan array binding signal (z-score) (Glc(b1-6)Glc): 0.704
- glycan array binding signal (z-score) (GlcA(b1-3)Gal): -0.158
- glycan array binding signal (z-score) (GlcA(b1-3)GlcNAc): -0.149
- glycan array binding signal (z-score) (GlcA(b1-6)Gal): -0.146
- glycan array binding signal (z-score) [13]: -0.148
- glycan array binding signal (z-score) [14]: -0.15
- glycan array binding signal (z-score) [15]: -0.159
- glycan array binding signal (z-score) [16]: -0.144
- glycan array binding signal (z-score) (GlcNAc(b1-3)Gal): -0.153
- glycan array binding signal (z-score) [17]: -0.145
